Reference: publication PMC6919601, “Identification of Plasmodium dipeptidyl aminopeptidase allosteric inhibitors by high throughput screening” (PLoS ONE, 2019)
Out of some 110,000 compounds screened, about 230 (0.21%) showed an effect of 50% or more. The list shows a part of the results.

target: DPAP1 (Plasmodium falciparum, UniProt Q8IIJ9); assay: primary screen, percent inhibition; read by cleavage of a fluorogenic dipeptide substrate; higher = more effect of the substance; set-up: species or system P. falciparum D10 trophozoite lysates; single well
Sequence (Q8IIJ9 whole entry, looked up): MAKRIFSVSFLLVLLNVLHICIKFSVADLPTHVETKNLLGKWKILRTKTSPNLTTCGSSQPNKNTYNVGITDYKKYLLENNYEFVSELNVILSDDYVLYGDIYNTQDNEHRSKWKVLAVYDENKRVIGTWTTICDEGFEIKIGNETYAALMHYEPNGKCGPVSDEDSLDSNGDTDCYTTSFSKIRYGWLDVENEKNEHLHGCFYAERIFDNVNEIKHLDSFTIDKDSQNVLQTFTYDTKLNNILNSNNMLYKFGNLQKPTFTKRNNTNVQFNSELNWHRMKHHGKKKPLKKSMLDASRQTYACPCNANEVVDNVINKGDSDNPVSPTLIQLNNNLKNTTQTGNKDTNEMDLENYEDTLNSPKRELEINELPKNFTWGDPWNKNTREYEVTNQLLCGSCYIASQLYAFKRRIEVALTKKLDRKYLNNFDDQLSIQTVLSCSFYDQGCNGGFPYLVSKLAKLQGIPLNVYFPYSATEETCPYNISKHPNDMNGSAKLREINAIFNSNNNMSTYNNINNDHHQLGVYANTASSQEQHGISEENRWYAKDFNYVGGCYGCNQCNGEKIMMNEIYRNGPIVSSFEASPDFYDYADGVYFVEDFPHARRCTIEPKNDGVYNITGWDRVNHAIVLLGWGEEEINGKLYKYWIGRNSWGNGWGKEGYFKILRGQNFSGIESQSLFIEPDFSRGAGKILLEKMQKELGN
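Note: 30 min substrate incubation versus DMSO and 10 µM JCP410 controls.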

**Q.** How did the “% Inhibition @ 10 uM” value turn out when `CCOC(=O)c1cnn2c(C)cc(C)nc12` was run?
**A.** The value was 0.427%.

**Q.** With `CCC1=C(OC(=O)c2ccccc2)C(C)(C)C(c2ccccc2)OC1=O` (stereo not shown) as the compound, how does the “% Inhibition @ 10 uM” value read?
**A.** The value was 1.37%.

**Q.** `Cc1ccc(C(=O)Nc2scc(-c3ccccc3)c2C(=O)O)cc1` was tested. Which “% Inhibition @ 10 uM” value did it give?
**A.** The value was 5.65%.

**Q.** With `COc1cc(CN2CCN(Cc3cccc(C)c3)CC2)cc(OC)c1OC` as the compound, how does the “% Inhibition @ 10 uM” value read?
**A.** The value was -1.88%.

**Q.** How did the “% Inhibition @ 10 uM” value turn out when `COc1ccc(C2NC(=O)NC(C)=C2C(=O)Nc2cccc(Cl)c2)cc1` (stereo not shown) was run?
**A.** Its value is -5.23%.

**Q.** `CCOC(=O)c1sc(NC(=O)CN2CCN(C)CC2)c(C(=O)OCC)c1C` was tested. Which “% Inhibition @ 10 uM” value did it give?
**A.** Its value is -5.28%.

**Q.** For `Cc1nc2ccccc2c2c1C(=O)N(Cc1cccnc1)C2=O`, which “% Inhibition @ 10 uM” value is on record?
**A.** Its value is 6.01%.

**Q.** `CCc1nn(C(C)C(=O)NCc2ccc(C)cc2)c(=O)c2cc3occc3n12` (stereo not shown) was tested. Which “% Inhibition @ 10 uM” value did it give?
**A.** The value was 1.38%.

**Q.** `Clc1ccc(N2CCN(Cc3cccnc3)CC2)cc1` was tested. Which “% Inhibition @ 10 uM” value did it give?
**A.** Its value is 1.55%.

**Q.** With `O=C(Nc1ccc(Cl)cc1)N1CCN(c2ccccn2)CC1` as the compound, how does the “% Inhibition @ 10 uM” value read?
**A.** Its value is 0.528%.

**Q.** How did the “% Inhibition @ 10 uM” value turn out when `CCC(=O)NCc1nc2ccccc2n1Cc1ccc(C)cc1` was run?
**A.** The value was -0.551%.

**Q.** For `CCOC(=O)C1=C(CN2CC(C)CC(C)C2)NC(=O)NC1c1ccc(OC)cc1` (stereo not shown), which “% Inhibition @ 10 uM” value is on record?
**A.** Its value is -1.59%.

**Q.** For `CC1CCN(c2c(NCC3CCC(C(=O)N4CCc5ccccc5C4)CC3)c(=O)c2=O)CC1` (stereo not shown), which “% Inhibition @ 10 uM” value is on record?
**A.** The value was 1.22%.

**Q.** How did the “% Inhibition @ 10 uM” value turn out when `CCC(=O)c1c(C)nc2n(Cc3ccccc3)c3ccccc3n12` was run?
**A.** Its value is -1.22%.

**Q.** With `CSCCC(C(=O)Nc1ccc(C)cc1)N1C(=O)c2ccccc2C1=O` (stereo not shown) as the compound, how does the “% Inhibition @ 10 uM” value read?
**A.** The value was 7.31%.

**Q.** For `Cc1cccc(OCCCCN2CCCC2)c1`, which “% Inhibition @ 10 uM” value is on record?
**A.** The value was 2.4%.

**Q.** How did the “% Inhibition @ 10 uM” value turn out when `N#CCCN1CCN(C2=NC(=O)/C(=C/c3ccccc3Cl)S2)CC1` was run?
**A.** The value was 2.44%.

**Q.** For `COc1ccc(NC(=O)C2=C(C)NC(=O)NC2c2cc(OC)c(OC)c(OC)c2)cc1` (stereo not shown), which “% Inhibition @ 10 uM” value is on record?
**A.** Its value is 12.1%.

**Q.** With `CC(=O)C12CCCCC1CC1C3CC=C4CC(O)CCC4(C)C3CCC12C` (stereo not shown) as the compound, how does the “% Inhibition @ 10 uM” value read?
**A.** Its value is -3.27%.

**Q.** `Cc1ccc(-c2csc(-c3cc4c(ccc5ccccc54)oc3=O)n2)c(C)c1` was tested. Which “% Inhibition @ 10 uM” value did it give?
**A.** The value was -4.11%.

**Q.** For `CC12CCC(C(=O)Nc3ccccc3C(F)(F)F)(C(=O)C1=O)C2(C)C` (stereo not shown), which “% Inhibition @ 10 uM” value is on record?
**A.** The value was 4.98%.

**Q.** How did the “% Inhibition @ 10 uM” value turn out when `Cn1c(-c2cc[n+](C)c3ccccc23)[n+](C)c2ccccc21` was run?
**A.** Its value is -0.615%.

**Q.** How did the “% Inhibition @ 10 uM” value turn out when `O=C1c2ccccc2C(=O)N1CC1c2ccccc2CCN1C(=O)C1CCCCC1` (stereo not shown) was run?
**A.** Its value is -1.54%.

**Q.** `COc1cc(C2C(C#N)=C(N)Oc3[nH]nc(CSc4ccc(C)cc4)c32)cc(OC)c1OC` (stereo not shown) was tested. Which “% Inhibition @ 10 uM” value did it give?
**A.** The value was -0.941%.

**Q.** How did the “% Inhibition @ 10 uM” value turn out when `CC[C@H](NC(=O)[C@H](CS(=O)(=O)Cc1ccccc1)NC(=O)N1CCOCC1)C(=O)c1nccs1` was run?
**A.** The value was -0.214%.

**Q.** How did the “% Inhibition @ 10 uM” value turn out when `COc1ccc(CNC(=O)c2cc(NS(=O)(=O)c3ccc(C)cc3)ccn2)cc1` was run?
**A.** The value was 6.31%.

**Q.** `CC(Cc1ccccc1F)N(C)CCN(C)C` (stereo not shown) was tested. Which “% Inhibition @ 10 uM” value did it give?
**A.** The value was -1.75%.

**Q.** `CC(C)N1C(=O)S/C(=C\c2cccn2-c2cccc(C(=O)O)c2)C1=O` was tested. Which “% Inhibition @ 10 uM” value did it give?
**A.** Its value is 9.73%.

**Q.** Which “% Inhibition @ 10 uM” value does the source give for `CCCC(C)C(=O)Nc1nc2ccccc2s1` (stereo not shown) here?
**A.** The value was -8.26%.

**Q.** With `Cc1nnc(N2C(=O)c3ccccc3C2=O)s1` as the compound, how does the “% Inhibition @ 10 uM” value read?
**A.** Its value is 2.54%.

**Q.** With `O=C(O)CCC(=O)N1CC=C(c2ccccc2)CC1` as the compound, how does the “% Inhibition @ 10 uM” value read?
**A.** Its value is 0.64%.

**Q.** Which “% Inhibition @ 10 uM” value does the source give for `COc1ccccc1OCc1ccc(C(=O)NCc2ccccn2)cc1` here?
**A.** The value was -7.98%.

**Q.** `COc1cccc(Oc2cc(F)nc(N)n2)c1` was tested. Which “% Inhibition @ 10 uM” value did it give?
**A.** The value was 2.92%.

**Q.** How did the “% Inhibition @ 10 uM” value turn out when `Cc1ccc(-c2ccccc2)n1-c1ccccc1C(=O)O` was run?
**A.** The value was 4.55%.

**Q.** With `COc1cc(CCNC(=O)CCc2c(C)nc3c4cccnc4nn3c2C)cc(OC)c1OC` as the compound, how does the “% Inhibition @ 10 uM” value read?
**A.** Its value is -0.0115%.

**Q.** For `Cc1cc(Cl)ccc1OCCCc1c(C)n[nH]c1C`, which “% Inhibition @ 10 uM” value is on record?
**A.** The value was -0.553%.

**Q.** Which “% Inhibition @ 10 uM” value does the source give for `COc1ccc(CN2CC(C(=O)NCc3ccc4c(c3)OCO4)CC2=O)cc1` (stereo not shown) here?
**A.** Its value is -1.21%.

**Q.** With `COc1ccc2c(CNCc3ccco3)c(C(=O)O)[nH]c2c1` as the compound, how does the “% Inhibition @ 10 uM” value read?
**A.** The value was 2.6%.

**Q.** Which “% Inhibition @ 10 uM” value does the source give for `O=C(c1ccc(Br)cc1)N(Cc1ccc(Cl)cc1)C1CCS(=O)(=O)C1` (stereo not shown) here?
**A.** Its value is -11%.

**Q.** `CCN(CC)CCNC(=O)c1nc(-c2cccs2)no1` was tested. Which “% Inhibition @ 10 uM” value did it give?
**A.** Its value is -0.0678%.

**Q.** With `CCOC(=O)c1ccc(-n2c(C)c3c(OC)cccc(=O)c3c2C)cc1` as the compound, how does the “% Inhibition @ 10 uM” value read?
**A.** Its value is -0.958%.

**Q.** How did the “% Inhibition @ 10 uM” value turn out when `COc1ccc(-c2nn(C)c3sc(C(=O)NCCCN4CCOCC4)cc23)cc1OC` was run?
**A.** Its value is 1.23%.

**Q.** With `Cc1ccc(CCNC(=O)CS(=O)(=O)Cc2nc(-c3ccc(C)cc3)oc2C)cc1` as the compound, how does the “% Inhibition @ 10 uM” value read?
**A.** Its value is -3.7%.

**Q.** For `CCOc1ccc(/C=C2/SC(=O)NC2=O)cc1OC`, which “% Inhibition @ 10 uM” value is on record?
**A.** Its value is 1.12%.

**Q.** Which “% Inhibition @ 10 uM” value does the source give for `CCN1C(=O)C(O)(CC(=O)c2cccc(N)c2)c2ccccc21` (stereo not shown) here?
**A.** The value was -5.34%.

**Q.** Which “% Inhibition @ 10 uM” value does the source give for `O=C(NC1CCCCC1)N1CCC2(CC1)OCCO2` here?
**A.** Its value is -0.551%.

**Q.** Which “% Inhibition @ 10 uM” value does the source give for `CC1CCc2c(sc(NC(=O)COc3ccccc3)c2C#N)C1` (stereo not shown) here?
**A.** Its value is -2.89%.

**Q.** For `O=C1C=C(NCc2ccc(Cl)cc2Cl)C2(CCCCC2)O1`, which “% Inhibition @ 10 uM” value is on record?
**A.** The value was 1.67%.

**Q.** With `COc1ccc(C2C(C#N)=C(N)Oc3cc(N)ccc32)cc1OC` (stereo not shown) as the compound, how does the “% Inhibition @ 10 uM” value read?
**A.** The value was -0.41%.

**Q.** For `CC(C)C[C@H](NC(=O)c1ccc(N2CCOCC2)cc1)C(=O)NC(C#N)C#N`, which “% Inhibition @ 10 uM” value is on record?
**A.** Its value is -1.61%.

**Q.** How did the “% Inhibition @ 10 uM” value turn out when `COc1ccccc1/C=C1\N=C(c2ccccc2OC)OC1=O` was run?
**A.** The value was 11.2%.

**Q.** How did the “% Inhibition @ 10 uM” value turn out when `CCN(C1CCCCC1)S(=O)(=O)c1ccc(S(=O)(=O)N2CCN(CCC#N)CC2)cc1` was run?
**A.** The value was -0.0735%.

**Q.** For `COCC(=O)Nc1cccc(C)c1C`, which “% Inhibition @ 10 uM” value is on record?
**A.** The value was 0.634%.

**Q.** How did the “% Inhibition @ 10 uM” value turn out when `COc1cc(OC)cc(C(=O)Nc2ccc(S(=O)(=O)Nc3cccc(Cl)c3)cc2)c1` was run?
**A.** Its value is 4.05%.

**Q.** Which “% Inhibition @ 10 uM” value does the source give for `CCOc1ccc(CCNC(=O)CCc2nnc3ccc(N4CCN(C)CC4)nn23)cc1OCC` here?
**A.** The value was -6.16%.

**Q.** `Cc1oc(-c2ccc(C(=O)NCc3cccnc3)cc2)nc1CS(=O)c1ccccc1` (stereo not shown) was tested. Which “% Inhibition @ 10 uM” value did it give?
**A.** The value was -6.7%.

**Q.** How did the “% Inhibition @ 10 uM” value turn out when `CCN(CC)CCN(C)Cc1ccc(F)cc1` was run?
**A.** The value was 3.68%.

**Q.** How did the “% Inhibition @ 10 uM” value turn out when `COCCCNC(=O)Cn1cc(C(=O)c2ccc(F)cc2)c(=O)c2ccc(C)nc21` was run?
**A.** Its value is 2.86%.

**Q.** With `Cc1nc(Oc2ccccc2)cc(-n2nc(C)c(C#N)c2N)n1` as the compound, how does the “% Inhibition @ 10 uM” value read?
**A.** Its value is -2.77%.

**Q.** How did the “% Inhibition @ 10 uM” value turn out when `NC(=O)C(c1ccccc1)C(c1ccccc1)c1ccccc1` (stereo not shown) was run?
**A.** Its value is -2.56%.

**Q.** For `COc1ccc(C(CC(=O)O)NC(=O)c2sc3ccccc3c2Cl)cc1` (stereo not shown), which “% Inhibition @ 10 uM” value is on record?
**A.** The value was 4.32%.

**Q.** `COc1ccc(S(=O)(=O)Nc2ccc(S(=O)(=O)Nc3cccc4ccccc34)cc2)cc1C` was tested. Which “% Inhibition @ 10 uM” value did it give?
**A.** Its value is 19.2%.

**Q.** How did the “% Inhibition @ 10 uM” value turn out when `c1c2c(cc3nsnc13)OCCO2` was run?
**A.** The value was -5.47%.

**Q.** How did the “% Inhibition @ 10 uM” value turn out when `Cc1nn(CCCC(=O)NCc2cccnc2)c(=O)c2c1sc1ccccc12` was run?
**A.** Its value is -5.95%.
